# Measured values as given in the RNAGym collection of RNA variant scans (doi:10.7554/elife.90254).
# The source gives no read counts; variants with many changes may rest on few reads.
# B1: LINE1-mini (parent)
# chain: GGCAGAGCUCAACACAGCGUGGCAAAGUGGCUGUGGCUAGACUGCC
# Variants of: B1
# Test: self-cleavage, relative activity (ratio to wild type); higher = more cleavage; in vitro, sequencing; the parent is a self-cleaving ribozyme
row,Variant,self-cleavage
1,GGCAGAUCUCAACACAGCAUGGCUAAGUGGGUGUGGCUAGACUGCC,0.01
2,GGCAGAGCUCAACACAGCGUGGCAGCGUGGCUGGGGCUAGACUGCC,0.03
3,GGCAGCGCUGAACACAGCGGGGCAAAGUGGCUGUUGCUAGACUGCC,0
4,GGCAGAGCUCAACACAGCGUGACACGGUGGCUGUGGCUAGUCUGCC,0.57
5,GGCAGAGCUCAACACCACGUGGCAAAGUGGCUGUGGCUGGACUGCC,0.03
6,GGCAGAGGGCAACACAGCGUGGCAAAGUGGCUGUGGCUAUACUGCC,0.07
7,GGCAGAGCUCAACACAGCGAGGCAAAGUGGCUGUGUCUAGCCUGCC,0.04
8,GGCAGAGCUCAACACCGCGUGCCAAAGCGGCUGUGGCUAGACUGCC,0.03
9,GGCAGAGCUCAACACAGCGUGGGAAAGUGGCUGUGGCUAGAGUUCC,0.01
10,GACAGAGCUCAACACAGCGUGGCAAAGUGGCUGUGGCUAGAAUGCA,0.13
11,GGCAGAGCUCAACACAGCAUGGCAAAGUGGCUGUUGCUAGACUGAC,1.41
12,GCCGGAGCCCAACACAGCGUGGCAAAGUGGAUGUGGCUAAACUGCC,0.03
13,GGCAGAGUUCAACACAGCGUGGCGAAGUGGCUGAGGCUAGACUGCC,0.11
14,GGCAGAAAUCAACACAGCGUGGCAAAGUUGCUGUGGCUAGACUGCC,0.32
15,GGAACAGCUCAACACAGCGUGGCAAAGUGGCUGUCGCUAGACUGCC,0.13
16,AGCAGAGCUCCACACAACGUGGCAAAGUGGCUGUGGCUAGACUGCC,0.1
17,UGCAGAUCUCAAGACAGCGUGGCAAAGUGGCUAUGGCUAGACUGCC,0.08
18,GGGAGAGUUCCACACAGCCUGGCGAAGUGGCUGUGGCUAGACUGCC,0.05
19,GGCAGAGCUCAACCCGGCGUGGCAAAGUGGCUGUGGCGAGAAUGCC,0.01
20,GGCGGAGCUCAACACAGCGUGGCAAAGUGGGUGUGGCUAGACUACC,0.04
21,GGCAGAGCUCAACACAGCGUCGCAAAUUGGCCGUGGAUAGACUGUC,0.1
22,GGCAGAGCUCAACACAGCGUGGCAAAGUGGCGGUGGCUAGACAGCA,0.27
23,UGCAGAGCUCAACACUGCGUGGCAAAGUGCCUGUGGCUAGACCGAC,0.01

row,Variant,self-cleavage
1,GGCAGAGCUCAACACAGCGUGGCAAAGCGGCUGUGGCUACACCGCC,0.1
2,GGCAGACCUCAACACAGCGUGGCGAUGUGGCUCUGGGUAGACUGCC,0.3
3,GGCAGAGCUCAACAUAGAGUCGCAAAGUGGCUGUGGCUAGACUGCC,0.03
4,AGCUGAGCCCAACACAGCGUGGCAAAGUGGCUGUGGCCAGAAUGCC,0.02
5,GGCUGCGCUCAACACAGCGCGGCAAAGUGGCUGUGGAUAGACUGCC,0.08
6,UGCAGAGCCCAACACAGCGUGGCAAAGUGGCUGUCGCUAGACUGCC,0.02
7,GGCAGAGCUCAACAUGGCGUGGCAAAGAGGCUGUGGCUAGACUGCC,0.34
8,GGCAUAGAACAACACAGCGUGGCAAAGUGGCUGUGGCUAGACUGCC,0.47
9,GGCAGAGCUGAACACCGCGUAGCAAAGUGGCUCUGGCUAAACUGCC,0.01
10,GGAAGAGCUCAUCUCAGCGUGGCAAAGUGGCUGUGGCUAGAAUGCC,0.17
11,UGCAGAGCUGAAAAAAGCGUGGCAACGUGGCUGUGGCUAGACUGCC,0.01
12,UGCAGAGCUGAACACAGCGUGGCAAAGUGGCUGUGGCUAGAGUGCC,0
13,GACAGAGCUCUACACAGUGUGGCAAAGUGGCUCUGGCUAGAAUGCC,0.02
14,GGCAGAGCUCAACACAGCGUGGCAAAGUGGCUGAGGCUAGCGUGCC,0.08
15,GGCAGAACUCAACACAGCGUCACAAAGUGGCUGUGGUUAGACUGCC,0.03
16,GGCAGAGCUCAACAAAGCGGGGCAACGUGGCUGUGACUAGACUGCC,0.01
17,GGCAGAGCUCAACACAACGUGGCAAAGUGGCAGUGGCUUGACUGCC,0.01
18,GGCAGAACUCAUCACAGCGUGGCAAAGUGGCUGUGGCUAGACUACC,0.14
19,GGCACAGCUCAUCACAGCGUGGCAAAUUGUCUGUGGCUAGACUGCC,0.09
20,GGCAGACCUUAAAACAGCGUGGCGAAGUGGCUGUGGAUAGAGUGCC,0.01
21,GGCAGAGCGCAACACAGCGUGGCAAAGUGGCUCUGGAUAGACUGCC,0.03
22,GGCAGAACUCAACACAGCGAGGGAAAGUGGCUGGGGCUAGACUGCC,0.04
23,GCCAGAGCCCAAGACAGCGUGGCAAAGUGGCUGUGGCUAGACAGAC,0.01

row,Variant,self-cleavage
1,GACAGAGCUCUUCACAGCGUGGCAAAGUGGCUGUGGUUAGACGGCC,0
2,GGCAGAGUUUAACACAGCGUGGCAAAGUGGCUGUGGCUAGACUGCG,0.02
3,UGCAGAGCUCAACACAGCGUGGCAAAGUGGCUGUGUCUAGACUGCG,0.05
4,GGCAGAGCUGUACACAGCGUGAAAAAGUGGCUGUGGCUUGACUUCC,0
5,UGCAGAGCUCAAUACAGCGUGGCAAAGUGGCUGUGGUUAGAAUGCC,0.07
6,GGCAGACCUCGACACCGCGUGGCAAAGUGGCUGUGACUAAACUGCC,0.01
7,GGCAGAGCUCUACACAGCGUGACAAAGUGGCUGUGGCUAGACUGUC,0.2
8,GUCAGGGAUCAACACAGCGUGGCAAAGUGGCUGUGACUAGACUGCC,0.24
9,GGCAGAGCUCAACACAGCGUGGCAAAGUCGCUGUCGCUCGACUGCC,0.08
10,GGAUGAGCCCAACACAGCGUGGCAAAGUGGCUGUGGCUAGACUGCC,0.04
11,GGCCGAGCUCAACACAGCGUGACAGGGUGACUGUGGCUAGACUGUC,0.16
12,GGCAGAGCUCAACUCAGCGUGGCAAAGUGCCUGUGGAUAGACUGAC,0.01
13,GGCAGAGCUAAACACAGCGAGGCAAAGUGGCUGUGGCUGGACUGCC,0.02
14,GGCAAAUCUCAACACAGCGUUGCAAAGUGGCUGUGGCUAUACUGCC,0.08
15,GUCAGAGCUCAACAGAGCGUGGCAAAGAGGCUGUGGCUAGGCUGCC,0.02
16,GGUAGAGCUCAACACAGCGUGGUAAAGUGGCUGUCGCUAGACUGCC,0.19
17,GGCAGAGCCCAACACAGCGUGGUAAAGGGGCUGUGGCUAGACUGCG,0.01
18,GGCAGAGCUCAACACAGCGUGGUAAAAUGGCUGAGGCUAGACUGCC,0.16
19,GGCAGAGCGCAACACAGCGUGGCAAAGUGACCGUGGAUAGACUGAC,0.01
20,GGCAGAGCUCAACACAGAGUCGCAAAGUGGCUGUGGCUAGACCGCC,0.16
21,GACUGAGCUCAACACAGCGUGGCAAAGUGUCUGUGGCUAGACUGCC,0.42
22,UGCAGAGCUCAACACAGCGUGGCAAAGGGGCUGUGGCUAGACUGUC,0.46
23,GGCAUAGCUCAACACAGCAUGGCAAAGUGGCUGUGGCUAGACUAUC,0.11

row,Variant,self-cleavage
1,GGCAGAGCUCAACCCAACGUGGCAAAGUGGAUGUGGCUAGACUACG,0.01
2,GGCAGAGCUGACCACAGCGUGGGAAGGUGGCUGGGGCUAGACUGCU,0.01
3,GGCAGAGCUCAACACAGGGUGGCAAAGUGGCUGUGGAUGGACUGCC,0.01
4,GGCAGUGCUCGACACAGCGUGGCCAAGUGGCUGUGGUUAGACUGCC,0.01
5,UGCAGAGCUCAACACAGCGUGGCAAAGUGGGUGCGGCUAGACUGCC,0.05
6,GGCAGCGCUAAAUACAGCGUGGCAAAGUGGCUGUGACUAGACUGCC,0.05
7,GGGAGAGCUCAACCCAGCGUCGCAAAGUGGCUGUGGCUAGACUGCC,0.03
8,GGCAGGGCUCAACACAGCGUGCCAAAGUGACUGUGUAUAGACUGCC,0.03
9,GGCAGAGCUCCAAACAGCGUGGCAAAGUGGCAGAGGCGAUACUGCC,0
10,GGCAGAGCUCAACACAGCGUGGGAAAGUGGCUGUGGCUAGGCUGAC,0.21
11,UGCAGAGCUCAGCACAGCGUGGCAAAGUGGCUGUGGCGAGACUGCC,0
12,GGCAGAGCUCAACACAGCGUGGCAAAAUGGCUGUGACUAAACUACC,0.13
13,GGCAGAGCUCAACACAGCGUGGCAAAGUGGCUGAAGUUAGACUGCC,0.03
14,UGCAGUGCUCAACACAGCGUGGCAAAGUGGUUGUGGCUAGACUGCC,0.05
15,GGCAGAGCUCAACACAGUGUGGGAAAGUGGCUGUCGCUAGACUGCC,0.02
16,GGCAGAGCUCAACAUAGCGUGGCAAAGUGGAUGCGGCCAGACUGCC,0.03
17,GGCAGAGCUCGACACAGCAUGGCACAGUGGUUGUGGCUACACUGCC,0.02
18,GUCAGAGCUCAACACAGCGUGGCAAGGUGGCUGUGGCUAGACUGCU,0.09
19,GGCAGAGCUCAAGACAGCGUGGCAGAGUGGAUGUGGCUAGACCGCC,0.07
20,GGCAGAGCUCAACGCAGAGUGGCAAAGUGGUUGUGGCUAGACUGCC,0.01
21,GUCCGAGCUCAACACAGCGUGGCAAAGUGGCAGUGGCUAGACUGCC,0.11
22,GGCAGAGCUUAAUACGGCGUGGCAAAGUGGUUGUGGCUAGACUGCC,0.01
23,GGCAGAGCUCAACACUGCGUGGAAAAGUGCCAGGGGCUAGACUGCC,0.04

row,Variant,self-cleavage
1,GUCCGAGCUCAUCACAGCGUGGCAAAUUGGCUGUGGCAAGACUGCC,0.03
2,GGCAGAGCUCAACACAGCGUGGCAAAGUGCACGUGGCUAGACUGCC,0.06
3,GGCAGAGUUGAACACAGCGUGGCAAAGUGGCUGUGGCUAGAAUGCC,0.01
4,GGAAGAGCUCAACACAGCGUGGCAAAGUGACUGUCGCUAGAGUGCC,0.08
5,GGCCGAGCUCAACACAGCGUGGCCAAGUGGCUGUGGCUAAAUUGCC,0.03
6,GGGAAAGCUCAAGACAGCGUGGCAAAGUGGCUGUGGCUAGACUGCC,0.04
7,GGCAGAGCUCAACACAGCGUGGGACAGUGGCUGUGGCGAGACUGCC,0
8,GGCAGACCUCAACACGGCGUGGCAAAGUUGCUGUGGCUAGACAGCC,0.04
9,UGCAGAGCUAAAUACAGCGUGCCAAAGUGGCUGUGGCUAGACUGCC,0.01
10,GGCAGAGCUCAACACAGCAUGGCAAAGUGACUGUGCCUAGUCAGCC,0.02
11,GGCAGAGAUCAUCACAGCGUGGCCAAGUGUCUGUGGCUAGACUGCC,0.13
12,GGCAGAGCUAAACACAGCGUGGCAAAGUGGCUUUCGCUAGACUGCC,0.03
13,GGCAGAGAUCAAGACGGCGUGGCAAAGUGGCUGUGGCUUGACUGCC,0.1
14,GGCAAUGCUCAACACAGCGUGGCAAAGUGGCUGAGGCUAGACUGCC,0.04
15,GGUAGAGCUAAAUACAGCGUGGCAAAGUGGCUGUGGCUAGACUGCU,0.04
16,GGCAGAUCUCAGCGAAACGUGCAAAAGUGGCUGUGGCUAGACAGCC,0.1
17,GACAGAGCUCAACACAGCGUGGCAAACUGGAUGUGGCUAGACUGCC,0.35
18,GGCAUAGCUCAACGCAGCGUGGCAAAUUGGCUGUGGCUAGACAGCC,0.02
19,GGCAGAGCUCAACACAGCGUGGCAUAGCGGCUGUGGCUUGACUGCC,1.44
20,CGCAGAGCUACACACAGCUUGGCAAAGUGGCGAUGGCUAGACUGCC,0.01
